# Assay results reported in PubChem BioAssay AID1347165 (National Center for Advancing Translational Sciences (NCATS), 2019).
# Among all 220,000 compounds or so, about 5,700 (2.6%) were called active. The shares of active, inactive and inconclusive entries below differ from those in the screen. The call rests on the fitted dose curve; in most records, active means well fitted inhibition curve with a large enough effect; inconclusive means small, poorly fitted or top-dose-only effect; inactive means no such curve, though single readings can be large or run the other way. Potencies beside an inconclusive call are fits to weak or partial responses and may not hold up.
# Target: Lysine-specific demethylase 5B (Homo sapiens) (UniProt Q9UGL1)
# Assay: Primary screen for KDM5B Histone Demethylases FDH-coupled qHTS; further: nearly all actives have a fitted effect of over 70% in size; on activity change, negative = inhibition: 0% is about no effect
# Details: FDH-coupled NADH fluorescence (FDH is formaldehyde dehydrogenase); activity change, negative = inhibition: at 57.7 µM (top of the series) unless noted
# In short: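 Compound dilutions met 200 nM (final) KDM5BΔAP for 10 min at room temperature before substrate addition. The substrate mix held 12.5 µM H3K4me3 with cofactors 25 µM α-ketoglutarate and 50 µM Fe²⁺. NADH signal gain over 30 min defined activity.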
# Potency means the concentration at half of the fitted maximal effect; tags describe the fitted curve by direction and shape.
# Sequence of UniProt Q9UGL1 (Q9UGL1 whole entry, looked up): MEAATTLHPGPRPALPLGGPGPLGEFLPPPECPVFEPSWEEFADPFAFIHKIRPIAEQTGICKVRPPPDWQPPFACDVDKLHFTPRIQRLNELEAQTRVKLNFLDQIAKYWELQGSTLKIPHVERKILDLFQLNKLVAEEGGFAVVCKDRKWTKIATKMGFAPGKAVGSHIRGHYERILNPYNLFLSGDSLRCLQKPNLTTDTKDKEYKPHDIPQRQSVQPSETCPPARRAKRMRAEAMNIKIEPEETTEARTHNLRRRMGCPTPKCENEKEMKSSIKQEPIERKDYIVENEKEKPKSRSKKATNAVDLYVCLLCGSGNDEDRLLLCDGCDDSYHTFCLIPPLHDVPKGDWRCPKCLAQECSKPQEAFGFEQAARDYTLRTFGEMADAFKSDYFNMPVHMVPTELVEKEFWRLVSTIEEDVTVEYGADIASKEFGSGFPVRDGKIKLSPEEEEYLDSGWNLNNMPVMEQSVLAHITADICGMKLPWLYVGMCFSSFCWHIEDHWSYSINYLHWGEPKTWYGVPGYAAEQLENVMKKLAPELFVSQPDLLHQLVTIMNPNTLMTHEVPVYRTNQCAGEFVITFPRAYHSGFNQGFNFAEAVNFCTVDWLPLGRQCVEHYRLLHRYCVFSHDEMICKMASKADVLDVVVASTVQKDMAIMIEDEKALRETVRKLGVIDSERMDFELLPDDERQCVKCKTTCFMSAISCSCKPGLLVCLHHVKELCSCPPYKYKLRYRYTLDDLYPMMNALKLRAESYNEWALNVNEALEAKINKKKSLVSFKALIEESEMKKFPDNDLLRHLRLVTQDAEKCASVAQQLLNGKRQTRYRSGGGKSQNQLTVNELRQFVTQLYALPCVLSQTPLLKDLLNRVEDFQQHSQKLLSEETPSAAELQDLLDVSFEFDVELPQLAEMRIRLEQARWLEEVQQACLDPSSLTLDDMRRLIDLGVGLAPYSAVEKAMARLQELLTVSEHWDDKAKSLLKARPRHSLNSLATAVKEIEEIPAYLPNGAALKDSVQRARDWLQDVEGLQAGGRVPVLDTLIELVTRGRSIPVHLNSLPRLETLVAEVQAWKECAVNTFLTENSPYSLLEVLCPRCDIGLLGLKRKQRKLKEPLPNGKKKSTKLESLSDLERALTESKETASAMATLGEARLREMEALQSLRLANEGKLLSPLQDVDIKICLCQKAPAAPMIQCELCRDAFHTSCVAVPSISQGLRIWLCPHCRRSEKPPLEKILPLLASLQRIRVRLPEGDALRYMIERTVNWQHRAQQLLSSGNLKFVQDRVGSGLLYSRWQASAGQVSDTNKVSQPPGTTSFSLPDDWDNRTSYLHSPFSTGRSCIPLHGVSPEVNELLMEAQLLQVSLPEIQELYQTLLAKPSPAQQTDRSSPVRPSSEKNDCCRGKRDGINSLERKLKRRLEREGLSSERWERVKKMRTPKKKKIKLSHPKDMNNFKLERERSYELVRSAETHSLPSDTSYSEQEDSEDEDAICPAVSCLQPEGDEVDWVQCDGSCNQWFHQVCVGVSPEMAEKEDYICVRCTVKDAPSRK
SMILES,Potency,"activity change, negative = inhibition"
c1ccc(N2CCN(c3ncnc4c3nc3n4CCCC3)CC2)cc1,"inconclusive: 35.5 µM [inhibitor, single point]",–
COc1ccc(OC)c(C2CCCN2CC(=O)N(C)c2ccccc2)c1 (centres undefined),–,inactive: -23.6%
O=C(O)/C=C/c1ccc(-c2cccc(Cl)c2)s1,"inconclusive: 39.8 µM [inhibitor, single point]",–
c1ccc(CCNc2ncncc2-c2nc(-c3ccccc3)no2)cc1,active: 35.5 µM,–
CN(Cc1ccsc1)C(=O)/C=C/c1cccc2ccccc12,"inconclusive: 35.5 µM [inhibitor, single point]",–
O=C(NCCCO)C(=O)Nc1c2c(nn1-c1ccc(F)cc1)CSC2,"inconclusive: 31.6 µM [inhibitor, single point]",–
Cc1nnc(N2CCC(C(=O)NCc3ccc(N(C)C)cc3)CC2)c2nn(-c3ccccc3)c(C)c12,"inconclusive: 1.12 µM [inhibitor, partial curve, poor fit]",–
Cc1ccc(S(=O)(=O)Nc2ccc(-c3cn4ccccc4n3)cc2)c(C)c1,"inconclusive: 39.8 µM [inhibitor, single point]",–
O=C(c1ccc(Cl)cc1)N1CC2(CCCN(C3COC3)C2)Cc2ccccc21 (centres undefined),"inconclusive: 56.2 µM [inhibitor, partial curve, poor fit]",–
N#Cc1ccc(S(=O)(=O)N2CCCN(c3ccc(C(F)(F)F)cn3)CC2)cc1,–,inactive: 21.2%
COc1ccc(NC(=O)NC2(C(F)(F)F)Oc3ccccc3O2)cc1,"inconclusive: 12.6 µM [inhibitor, partial curve, poor fit]",–
CC1(COc2ccccc2)COc2ccc(C(=O)NCc3ccco3)cc2N1 (centres undefined),"inconclusive: 6.31 µM [inhibitor, partial curve, poor fit]",–
O=C(c1nnn2cc(-c3ccccc3)[nH]c(=O)c12)N1CCN(C2CCCCC2)CC1,"inconclusive: 25.1 µM [inhibitor, partial curve, poor fit]",–
CNc1ncc(CN(C)C(=O)c2cc(S(N)(=O)=O)ccc2F)cn1,active: 22.4 µM,–
COc1cccc(-c2cc(C(F)(F)F)nc(NCc3ccc(F)cc3)n2)c1,"inconclusive: 28.2 µM [inhibitor, partial curve, poor fit]",–
CCC1=C(C(=O)OC)C(c2ccccc2OC)N2C(CC(=O)NC(C)(C)C)=CSC2=N1 (centres undefined),"inconclusive: 28.2 µM [inhibitor, partial curve]",–
COc1ccc(-c2ccc3c(n2)CN(Cc2ccccc2F)C(=O)CO3)cc1OC,"inconclusive: 56.2 µM [inhibitor, partial curve, poor fit]",–
COCC1CN(C(C)=O)CC12CCN(C1CCN(C(C)=O)CC1)CC2 (centres undefined),"inconclusive: 25.1 µM [inhibitor, partial curve, poor fit]",–
O=C(Cc1cccc(Cl)c1)N[C@@H]1CN(c2ncccn2)C[C@H]1CO,"inconclusive: 17.8 µM [inhibitor, single point]",–
CC(=O)Nc1ccc(C2(C(=O)NCc3ccco3)CCC2)cc1,"inconclusive: 6.31 µM [inhibitor, partial curve, poor fit]",–
CN1CCc2c(sc3c2c(=O)n(-c2cccc(Cl)c2)c(=O)n3CCN2CCCCC2)C1,"inconclusive: 12.6 µM [inhibitor, single point]",–
COC(=O)[C@@H]1Cc2ncn(C)c2CN1C(=O)c1ccc(F)cc1,"inconclusive: 20 µM [inhibitor, partial curve]",–

SMILES,Potency,"activity change, negative = inhibition"
COc1ccc(-n2c(-c3ccc(Cl)cc3)cc3c2CC(C)(C)CC3=O)c(OC)c1,"inconclusive: 31.6 µM [inhibitor, partial curve, poor fit]",–
Cc1nn2c(c1-c1ccccc1Oc1ccccc1)N(CC1CC1)CCC2,active: 31.6 µM,–
Cc1nn(-c2ccccn2)c(C)c1[C@@H]1C=C[C@@H](NC(=O)CSCC(=O)O)C1,"inconclusive: 44.7 µM [inhibitor, single point]",–
Cc1cc(/C=C2\C(=N)N3N=C(CC(=O)N4CCOCC4)SC3=NC2=O)c(C)n1Cc1ccccc1,"inconclusive: 31.6 µM [inhibitor, single point]",–
CC(=O)N1CC2(CCN(CC3CCCCC3)C2)Cc2ccccc21 (centres undefined),"inconclusive: 89.1 µM [inhibitor, partial curve]",–
O=C(CC1CCCC1)N1CC[C@@]2(O)CCN(Cc3ccccn3)C[C@H]2C1,active: 25.1 µM,–
O=S(=O)(NC1CCN(c2ncccn2)CC1)N1CCCCCC1,"inconclusive: 39.8 µM [inhibitor, single point]",–
CC(C)c1ccc(NS(=O)(=O)c2ccc3[nH]cc(C(=O)NC4CCCCC4)c(=O)c3c2)cc1,"inconclusive: 10 µM [inhibitor, partial curve, poor fit]",–
Cc1c(C(=O)N[C@H]2[C@H]3CCO[C@H]3[C@@H]2N(C)C)[nH]c2c(F)cccc12,"inconclusive: 20 µM [inhibitor, partial curve, poor fit]",–
O=C(NCc1ccccc1Cl)C1CCCN(c2nc3ccccc3n3cccc23)C1 (centres undefined),"inconclusive: 2.51 µM [inhibitor, partial curve, poor fit]",–
CCC(C)NC(=O)CCc1ccc(C#N)cc1 (centres undefined),–,inactive: -3.15%
CC(C)C(=O)NC(NC(C)(C)C)C(Cl)(Cl)Cl (centres undefined),–,inactive: 11.9%
Cc1cc(C)c(NC(=O)CSc2nc(CN(C)C)nc3ccccc23)c(C)c1,–,inactive: 18.7%
O=C(CNc1nc(-c2ccccc2)nc2ccccc12)NC1CC1,–,inactive: 6.61%
Cc1ccc(C)c(S(=O)(=O)NCC(c2ccc(N(C)C)cc2)N2CCOCC2)c1 (centres undefined),"inconclusive: 10 µM [inhibitor, partial curve, poor fit]",–
CN(CCO)C[C@@H]1CN(C(=O)c2nc3ccccc3[nH]c2=O)C[C@@H]1CO,active: 28.2 µM,–
CCC1=C(C(=O)OC)C(c2ccccc2)N2C(CC(=O)NCC3CC3)=CSC2=N1 (centres undefined),"inconclusive: 35.5 µM [inhibitor, single point]",–
Cc1nc2ccc(C(=O)NCC3CCN(C(C)C)C3)cc2nc1C (centres undefined),–,inactive: -18%
O=C(C1CCc2nnc(C3CCN([S+](=O)([O-])c4ccccc4)CC3)n21)N1CCN(c2ncccn2)CC1 (centres undefined),"inconclusive: 70.8 µM [inhibitor, single point]",–
Cc1csc(NC(=O)C2(C)COCc3cnc(Nc4ccccc4)nc32)n1 (centres undefined),"inconclusive: 56.2 µM [inhibitor, single point]",–
CCOC(=O)N1CCC(NC(=O)c2cnn(-c3cccc(C)c3)c2-n2cccc2)CC1,"inconclusive: 35.5 µM [inhibitor, single point]",–
COCc1c(C(=O)N/N=C(/C)c2cccs2)nnn1-c1nonc1N,"inconclusive: 39.8 µM [inhibitor, single point]",–

SMILES,Potency,"activity change, negative = inhibition"
CC(C)(C)C(=O)/C=c1/[nH]c(=O)/c(=C/c2c(F)c(F)c(F)c(F)c2F)s1,"inconclusive: 22.4 µM [inhibitor, single point]",–
CC(C)c1noc(C2Cc3ccccc3N2C(=O)CCn2cnnn2)n1 (centres undefined),"inconclusive: 5.62 µM [inhibitor, single point]",–
O=C(CCC1CCCC1)N1CCC2(CC1)CC(N(Cc1ccccc1)C1CC1)CCO2 (centres undefined),–,inactive: 3.64%
Cc1ccc(CC(=O)NC2CCN(c3cc(-c4cccs4)[nH]n3)C2)cc1 (centres undefined),"inconclusive: 10 µM [inhibitor, partial curve]",–
O=C(c1ccco1)N1CCN(C(=O)C2CCc3ncc(-c4ccsc4)n3C2)CC1 (centres undefined),"inconclusive: 20 µM [inhibitor, single point]",–
CN1C(=O)CO[C@H]2CN(c3ccc(C#N)cn3)C[C@H]21,active: 35.5 µM,–
COc1cc(NC(=O)C(C)n2nc(-c3ccccc3)c3c(c2=O)CCCC3)cc(OC)c1 (centres undefined),–,inactive: -2.01%
COC(=O)c1ccc(NS(=O)(=O)c2ccc3[nH]c4c(c3c2)CCCCC4)cc1,"inconclusive: 2 µM [inhibitor, full curve, poor fit]",–
CN1CCN(c2ccc(-c3cc4c(ccn4C)c(C(=O)NCC4CCOCC4)n3)cc2)CC1,"inconclusive: 28.2 µM [inhibitor, single point]",–
O=C(Nc1cccc(Br)c1)N1CCC2(CC1)SCC(=O)N2Cc1ccco1,"inconclusive: 17.8 µM [inhibitor, partial curve]",–
Cc1c(CC(=O)O)c(=O)oc2cc(OCc3ccccc3)ccc12,"inconclusive: 20 µM [inhibitor, partial curve, poor fit]",–
COc1ccc(NC(=O)Nc2cn(CC(C)C)c(=O)c3ccccc23)c(OC)c1,"inconclusive: 12.6 µM [inhibitor, partial curve, poor fit]",–
COc1cccc([S+](=O)([O-])N2CCC3(CC2)CC(=O)c2ccccc2O3)c1,"inconclusive: 4.47 µM [inhibitor, single point]",–
O=C1C2=C(Nc3ccccc3SC2c2c(F)cccc2Cl)c2ccccc21 (centres undefined),"inconclusive: 35.5 µM [inhibitor, single point]",–
O=C(NC1CCCC1)C1CCCN(C2CCN(C3Cc4ccccc4C3)CC2)C1 (centres undefined),active: 31.6 µM,–
O=C(Nc1cccc(Cl)c1)c1cnc2c(c1)N(Cc1ccccc1)CCC2,active: 35.5 µM,–
COc1cc(NC(=O)c2ccc3c(c2)N(C)C2CCCCN2C3=O)cc(OC)c1OC (centres undefined),"inconclusive: 31.6 µM [inhibitor, partial curve, poor fit]",–
COc1ccccc1C1(CNC(=O)c2cccc(F)c2)CCOCC1,–,inactive: 12.1%
CC(C(=O)NC(c1ccccc1)c1ccccc1)n1nc(C(=O)O)c2ccccc2c1=O (centres undefined),–,inactive: -7.57%
CCN(Cc1cc2cc(OC)ccc2[nH]c1=O)C(=O)c1ccco1,"inconclusive: 14.1 µM [inhibitor, partial curve, poor fit]",–
